# Experimental data as given in the supplement of paper PMC6531468.
# Some of the results follow. Read counts after selection give these values, which scatter widely. Scores sum up all selected molecules that hold the word; the word was not tested alone.
# Columns and labels:
# Experiment in all cases: 6-mer SELEX enrichment z-score vs GST control; IMP3 is the RNA-binding protein IGF2BP3; higher = more enriched by binding
# [1] = test system: IMP3 KH1-4; details: construct: KH1-4 (164-579); SELEX round: R4
# Procedure: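 SELEX-seq with GST-tagged IMP3 KH1-4 (Pro164-Lys579) and an N40 RNA pool, round 4. 6-mer z-score of sequence-tag enrichment normalised to the corresponding GST SELEX round; RNA k-mers written as DNA (T for U).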
# [2] = test system: IMP3 RRM1-2; details: construct: RRM1-2 (1-163); SELEX round: R2
# Procedure: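 SELEX-seq with GST-tagged IMP3 RRM1-2 (Met1-Asn163) and an N40 RNA pool, round 2. 6-mer enrichment z-score normalised to GST SELEX. RNA written as DNA (T = U).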
# [3] = target: IMP3 full-length (UniProt O00425); details: construct: FL IMP3 (1-579); SELEX round: R4
# Procedure: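 SELEX-seq with GST-tagged full-length IMP3 and an N40 RNA pool, round 4. Each 6-mer is scored as an enrichment z-score of sequence tags containing it, normalised to the matching GST SELEX round. RNA written as DNA (T = U).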
# [4] = test system: IMP3 KH3-4; details: construct: KH3-4 (377-579); SELEX round: R4
# Procedure: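 SELEX-seq with GST-tagged IMP3 KH3-4 (Pro377-Lys579) and an N40 RNA pool, round 4. 6-mer z-score of sequence-tag enrichment normalised to the corresponding GST SELEX round; RNA k-mers written as DNA (T for U).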
# Sequence of IMP3 KH3-4 (chain, as listed by the source): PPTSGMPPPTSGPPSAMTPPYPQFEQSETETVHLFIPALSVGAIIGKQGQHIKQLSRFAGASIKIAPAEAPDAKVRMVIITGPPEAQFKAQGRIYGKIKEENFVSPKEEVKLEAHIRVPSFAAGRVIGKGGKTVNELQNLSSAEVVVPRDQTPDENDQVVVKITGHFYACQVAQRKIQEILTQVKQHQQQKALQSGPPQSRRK
# Sequence of IMP3 KH1-4 (chain, as listed by the source): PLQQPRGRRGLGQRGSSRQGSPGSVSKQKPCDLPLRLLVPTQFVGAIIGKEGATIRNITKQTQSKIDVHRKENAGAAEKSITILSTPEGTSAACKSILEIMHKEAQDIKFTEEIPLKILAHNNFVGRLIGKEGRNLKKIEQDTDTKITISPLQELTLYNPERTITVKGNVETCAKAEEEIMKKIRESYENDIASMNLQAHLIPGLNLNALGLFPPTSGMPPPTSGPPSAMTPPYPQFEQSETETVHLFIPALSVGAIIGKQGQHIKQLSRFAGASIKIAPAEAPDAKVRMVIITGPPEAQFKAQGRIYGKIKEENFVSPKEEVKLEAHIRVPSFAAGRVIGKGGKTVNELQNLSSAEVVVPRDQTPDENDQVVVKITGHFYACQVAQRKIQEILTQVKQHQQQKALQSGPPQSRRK
# Sequence of UniProt O00425 (O00425 whole entry): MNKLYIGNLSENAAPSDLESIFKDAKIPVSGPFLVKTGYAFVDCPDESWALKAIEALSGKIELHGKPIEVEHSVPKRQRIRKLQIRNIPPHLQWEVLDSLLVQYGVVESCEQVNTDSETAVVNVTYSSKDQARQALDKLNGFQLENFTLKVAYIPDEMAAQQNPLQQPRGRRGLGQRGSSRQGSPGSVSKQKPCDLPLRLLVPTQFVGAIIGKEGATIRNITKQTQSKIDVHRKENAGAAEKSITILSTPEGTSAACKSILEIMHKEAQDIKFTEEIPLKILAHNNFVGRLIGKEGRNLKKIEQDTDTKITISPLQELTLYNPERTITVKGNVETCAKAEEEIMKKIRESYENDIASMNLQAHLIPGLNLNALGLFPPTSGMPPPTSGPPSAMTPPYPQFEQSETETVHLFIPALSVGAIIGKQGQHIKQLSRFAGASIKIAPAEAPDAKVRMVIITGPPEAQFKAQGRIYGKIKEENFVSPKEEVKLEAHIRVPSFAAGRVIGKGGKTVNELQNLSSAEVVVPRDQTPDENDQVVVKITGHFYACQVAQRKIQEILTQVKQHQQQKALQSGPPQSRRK
# Sequence of IMP3 RRM1-2 (chain, as listed by the source): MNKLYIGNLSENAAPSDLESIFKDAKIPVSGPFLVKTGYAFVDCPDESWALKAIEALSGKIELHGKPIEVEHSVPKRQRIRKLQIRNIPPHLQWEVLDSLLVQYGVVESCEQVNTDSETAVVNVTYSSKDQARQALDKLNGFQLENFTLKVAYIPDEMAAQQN
Sequence,6-mer SELEX enrichment z-score [1],6-mer SELEX enrichment z-score [2],6-mer SELEX enrichment z-score [3],6-mer SELEX enrichment z-score [4]
AGCCGG,-0.089,-0.401,0.412,-0.141
GGTTCC,-0.425,0.273,-0.069,-0.332
GGTCCC,-0.714,0.091,0.082,-0.842
CCGGTA,-0.401,-0.275,-0.162,-0.389
GTAGAG,-0.445,-0.148,-0.264,-0.234
GTCTCA,-0.414,0.61,0.515,-0.208
ATCACT,1.39,2.21,1.41,0.861
GGATAG,0.682,-0.073,0.154,0.879
CGACAG,-0.934,-0.281,0.136,-0.969
CGAGTT,-0.987,0.08,-0.473,-0.684
TTCGAA,-0.848,-0.406,-0.787,-0.597
AACAAG,-0.165,-0.243,-0.187,0.223
AGGTCC,-0.043,-0.032,0.286,-0.255
CGGCTC,0.279,0.515,0.947,0.171
AGAAGC,-0.561,-0.703,-0.49,-0.339
TATATT,1.7,0.406,0.501,2.31
TTGTTT,0.332,0.42,0.135,0.554

Sequence,6-mer SELEX enrichment z-score [1],6-mer SELEX enrichment z-score [2],6-mer SELEX enrichment z-score [3],6-mer SELEX enrichment z-score [4]
TTTATT,1.39,0.44,0.473,1.87
GGAGTC,0.645,-0.072,0.582,0.476
GAAGGG,0.586,-0.433,0.096,0.874
GATCAG,0.372,0.349,0.679,0.317
ATTTTC,1.25,0.481,0.676,1.37
CCCACC,-1.67,-0.593,-1.46,-2.51
CTGAAT,0.334,-0.588,-0.474,0.343
ACCCTG,-1.52,-0.874,-1.37,-1.88
CGCTTC,-0.102,0.224,0.143,-0.292
ACTCTT,-0.102,0.22,-0.229,-0.075
TCGTTC,0.099,0.506,0.173,0.02
GAACCC,-1.77,-1.62,-1.65,-2.28
GGTTAC,-0.205,0.263,-0.054,-0.179
ACATTT,1.59,1.14,1.52,1.82
GAGTGT,-2.17,-0.079,-1.6,-1.86
CTTAGG,-0.116,0.432,0.008,0.066
